Measurements: PubChem BioAssay AID485344 (National Center for Advancing Translational Sciences (NCATS), 2010)
In all, about 340,000 compounds went through this assay and about 6,900 (2%) were called active. Cut-off read from the data, not from the text of the source: active = inhibition above about 30%; inactive = below that, where a call was filed. The entries are a selection whose mix differs from that of the whole data set. Where no call is shown, the source filed none.
Note: 0% is about no effect.

These compounds were tested against D(2) dopamine receptor (Homo sapiens) (UniProt P14416) (assay: HTS Assay for Allosteric Antagonists of the Human D2 Dopamine Receptor: Primary Screen for Antagonists). Details: HEK293 TREx D2 cells, calcium flux, dopamine EC80; at 10 µM; stronger effect = higher value.
UniProt P14416, sequence (P14416 whole entry, looked up): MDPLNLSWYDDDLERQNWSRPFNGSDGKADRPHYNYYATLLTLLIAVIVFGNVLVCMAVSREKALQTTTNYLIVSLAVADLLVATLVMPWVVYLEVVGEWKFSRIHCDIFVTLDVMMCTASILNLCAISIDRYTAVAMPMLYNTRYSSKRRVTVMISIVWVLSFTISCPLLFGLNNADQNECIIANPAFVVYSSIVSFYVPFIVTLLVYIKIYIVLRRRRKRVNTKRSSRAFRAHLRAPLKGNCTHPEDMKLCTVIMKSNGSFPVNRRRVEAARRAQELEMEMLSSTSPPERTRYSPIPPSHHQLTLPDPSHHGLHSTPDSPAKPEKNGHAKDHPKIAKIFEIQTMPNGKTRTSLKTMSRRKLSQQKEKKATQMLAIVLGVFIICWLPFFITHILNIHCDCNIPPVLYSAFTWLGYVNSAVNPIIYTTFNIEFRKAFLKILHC
How it was run: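 Cells plated overnight at 30 C with tetracycline; no-wash calcium dye, 30–90 min RT; 10 s baseline; compound pinned; 180 s read; EC80 dopamine added; another 180 s read.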
Work on `O=C(Oc1ccc(F)cc1)c1nc(SCc2ccccc2F)ncc1Cl` yielded an inhibition of 11.3%. `Cc1oc2ncn(C)c(=O)c2c1C(=O)N1CCN(c2ccccc2)CC1` was tested, and the inhibition was -15.2%. In the case of `COc1ccccc1C(=O)NC1(C(F)(F)F)C(=O)Nc2c1c(=O)[nH]c(=O)n2-c1ccccc1` (stereo not given), the inhibition is reported as 2.45%. `COc1ccc(-n2nc3c(N4CCCC(C(=O)NCc5cccc(F)c5)C4)nnc(C)c3c2C)cc1` (stereo not given) showed an inhibition of -13%. For `Cc1ccc(Cn2c(C(=O)O)c(CNC3CCCCCC3)c3ccc(C)cc32)cc1`, the inhibition was 7.27%. Compound `COc1ccccc1CNC(=O)c1ccc2c(c1)N(Cc1cccc(Cl)c1)C(=O)c1ccccc1S2(=O)=O` has an inhibition of -8.34%. For `COc1ccc(Cn2c(C(=O)O)c(CNCCc3cccs3)c3ccc(C)cc32)cc1`, the inhibition was 4.28%. With `CC(=O)c1ccc(NC(=O)Cn2c(=O)c3cccn3c3ccccc32)cc1` the inhibition was 12.6%. `CCN1CCN(c2nc(Nc3ccccc3F)nc(N)c2[N+](=O)[O-])CC1` was tested, and the inhibition was active: 77.8%. For `Cc1cc(C)cc(S(=O)(=O)Nc2cccc(-c3ccc(N4CCOCC4)nn3)c2)c1`, the inhibition was 19.1%. `Cc1ccc(NC(=O)Cn2c(=O)n(CCC(=O)N3CCc4ccccc4C3)c(=O)c3ccccc32)cc1` showed an inhibition of -15.6%. `Cc1oc2ncn(CC(C)C)c(=O)c2c1C(=O)Nc1cc(F)ccc1F` gave an inhibition of -5.66%. Compound `CC(C)(C)C(=O)NCCc1nc2ccccc2n1CCCCOc1ccc(Cl)cc1` has an inhibition of -16.6%. `O=C(CCCN1C(=O)C(c2ccccc2)Oc2cccnc21)Nc1ccc(Br)cc1F` (stereo not given) gave an inhibition of 9.05%. `COc1ccc2c(CNCCc3cccs3)c(C(=O)O)n(Cc3ccccc3)c2c1` gave an inhibition of 11.1%. Compound `COc1ccc(-c2nc(SCC(=O)NCCc3ccc(OC)c(OC)c3)n[nH]2)cc1` has an inhibition of -3.31%. `CCOc1ccc(CCNC(=O)c2cc3c(=O)[nH]c4ccc(C)cc4c3s2)cc1OCC` gave an inhibition of 10.6%. `O=C(NC1CCCc2ccccc21)c1ccc2c(c1)sc1nc(-c3ccc(F)cc3)cn12` (stereo not given) showed an inhibition of -1.19%. With `Cc1ccc(Cl)cc1NC(=O)C1CCC(CNS(=O)(=O)c2cccc3nsnc23)CC1` (stereo not given) the inhibition was -9.18%. Work on `CCc1ccc2c(c1)NC(c1cccs1)=NC(c1ccc(F)cc1)=N2` yielded an inhibition of 5.24%. `COc1ccc(NC(=O)Cn2c(=O)oc3cc(S(=O)(=O)N4CCC(C)CC4)ccc32)c(OC)c1` was tested, and the inhibition was -8.69%. `CCc1ccccc1N(C)C(=O)Cn1cnc2sc(C)c(S(=O)(=O)N3CCN(c4ncccn4)CC3)c2c1=O` was tested, and the inhibition was -14.5%. `CCCS(=O)(=O)c1c(Nc2ccccc2C)sc(C(=O)c2ccccc2)c1N` showed an inhibition of -8.16%. `CCCc1cc(C(N)=O)c(NC(=O)c2ccoc2C)s1` was tested, and the inhibition was active: 30.9%. `Cc1ccc(NS(=O)(=O)c2cc(Br)cc3c2N(C(=O)C2CC2)CC3)cc1C` was tested, and the inhibition was 9.71%. Work on `COC(=O)c1ccc(Cn2nnc3sc4c(c3c2=O)CCC(C)C4)cc1` (stereo not given) yielded an inhibition of 0.224%. For `CCOc1ccccc1CNC(=O)CCn1ccc2cc(S(=O)(=O)N3CCC(C)CC3)ccc21`, the inhibition was -5.19%. For `COc1ccc(NC(=O)CN(C)CC(=O)Nc2sc3c(c2C#N)CCC3)cc1`, the inhibition was active: 32.2%. `CCOC(=O)Cc1ccc(NC(=O)NCc2ccc3c(c2)CCN3C(=O)CC)cc1` showed an inhibition of 23.4%. `COc1ccccc1C(=O)Nc1cc2c(cc1N1CCOCC1)n(C)c(=O)n2C` showed an inhibition of 2.41%. Compound `COc1cc2[nH]c(=O)n(CCCCCC(=O)N3CCN(c4cccc(C(F)(F)F)c4)CC3)c(=O)c2cc1OC` has an inhibition of 0.0089%. `O=C(NCc1cccs1)C1CCCN1C(=O)Nc1ccc(Cl)cc1` (stereo not given) was tested, and the inhibition was active: 31.6%. Compound `COc1cccc(N2CCN(C(=O)c3c(C)oc4ncnc(N5CCOCC5)c34)CC2)c1` has an inhibition of 6.18%. `O=C(c1ccc(=O)[nH]c1)N1CCN(S(=O)(=O)c2ccccc2)CC1` was tested, and the inhibition was active: 30.9%. In the case of `Cc1cccc(NS(=O)(=O)c2ccc3oc(=O)c4ncn(C)c4c3c2)c1C`, the inhibition is reported as 3.43%. With `CC(Sc1nnc(-c2cc3ccccc3o2)n1-c1ccccc1)C(=O)O` (stereo not given) the inhibition was active: 45%. In the case of `CCn1c(=O)n(CC)c2cc(N3CCCCC3)c(NC(=O)Nc3ccccc3Cl)cc21`, the inhibition is reported as -12.4%. In the case of `CC(C)c1ccc(NC(=O)CN(C)S(=O)(=O)c2ccc3c(c2)c(=O)n(C)c(=O)n3C)cc1`, the inhibition is reported as 24.3%. For `COc1ccccc1NC(=O)Cn1nnc(C(=O)NCc2ccc3c(c2)OCO3)c1N`, the inhibition was 3.44%. `CCC(C)NC(=O)Cn1c(=O)cc(-c2ccccc2)c2c(C)nn(C)c21` (stereo not given) was tested, and the inhibition was 2.36%. `Cn1c(NCCO)nc2c1c(=O)n(Cc1ccccc1Cl)c(=O)n2C` was tested, and the inhibition was -4.58%. With `O=C(NCC(c1ccco1)N1CCN(c2ccccc2F)CC1)C(=O)NC1CC1` (stereo not given) the inhibition was active: 32.7%. Compound `CCc1ccc(OCC(=O)N(Cc2ccc(Cl)cc2)C2CCS(=O)(=O)C2)cc1` (stereo not given) has an inhibition of -11.1%. `CCOC(=O)c1oc2c(c1C)-c1nn(Cc3ccc(Cl)cc3)cc1CC2` gave an inhibition of 0.145%. `Cc1noc(C)c1S(=O)(=O)N1CCC(C(=O)N2CCN(c3ccccc3)CC2)CC1` showed an inhibition of 6.13%. In the case of `COc1ccc(OCCCCn2c(CO)nc3ccccc32)cc1`, the inhibition is reported as active: 73.6%. In the case of `N#C/C(=C\c1ccccc1)c1nc(-c2cc3cc(Br)ccc3oc2=O)cs1`, the inhibition is reported as 13.1%. With `Cc1cccc(N(C)C(=O)c2cc(S(=O)(=O)N3CCCC3)cn2C)c1` the inhibition was 12%. `COC(=O)c1ccccc1NC(=O)NCCc1c(C)nn(C)c1C` gave an inhibition of 9.84%. For `CCc1ccc(CNCc2c(C(=O)O)n(Cc3cccc(F)c3)c3cc(OC)ccc23)cc1`, the inhibition was -9.74%. Work on `COc1cccc(N2CCN(S(=O)(=O)c3ccc4[nH]c5c(c4c3)CCCC5)CC2)c1` yielded an inhibition of 5.1%. Work on `O=C(Nc1ccccc1Br)C1CCCN(S(=O)(=O)c2cccc3nsnc23)C1` (stereo not given) yielded an inhibition of 2.96%. Compound `CCOC(=O)c1cccc(Nc2c3c(nc4ccccc24)CCC3)c1` has an inhibition of -8.27%. For `Cc1cccc(NC(=O)c2c(NC(=O)C(F)(F)F)sc3c2CCCCC3)c1`, the inhibition was -2.4%. `O=C1CC(c2ccccc2)Cc2[nH]c(=O)c(C(=O)Nc3cccc(F)c3)cc21` (stereo not given) gave an inhibition of 19.7%. For `O=C(NCCS(=O)(=O)N1CCN(c2ccccc2)CC1)C(c1ccccc1)c1ccccc1`, the inhibition was -3.27%. For `O=C(Nc1ccc2c(c1)OCO2)c1cc(-c2ccccc2Cl)on1`, the inhibition was active: 37.3%. Work on `Cc1ccc(N2CC(c3nc4ccccc4n3CCC3CCCCC3)CC2=O)cc1` (stereo not given) yielded an inhibition of 3.36%. Work on `COc1ccc(C2c3c(oc4ccc(F)cc4c3=O)C(=O)N2Cc2ccc3c(c2)OCO3)cc1` (stereo not given) yielded an inhibition of -15.7%. With `CCOc1ccc(C(CC(=O)O)N2Cc3ccccc3C2=O)cc1OC` (stereo not given) the inhibition was 4.05%.
